pKd: −log10 of the molar value.
Legend:
Assay in all cases: BLI, His-tagged target on Ni-NTA
[1] = target: His-tagged MPER peptide (HIV-1)
[2] = target: gp120 subunit 93TH057 (HIV-1)
[3] = target: soluble CD4

pKd [3]	Substance	pKd [1]	koff [1] [s⁻¹]	kon [1] [M⁻¹ s⁻¹]	pKd [2]	koff [2] [s⁻¹]	kon [2] [M⁻¹ s⁻¹]
	T-01 MB IgG2 WT	> 12.00	< 1e-07	485000	> 12.00	< 1e-07	465000
> 12.00	T-02 MB						

From US20250276070A1
